2 molecules from the supplement of paper PMC11741623 can be followed below.

Assay in all cases: yeast fitness gain over the viral ORF with no human partner (scaled fitness); higher = more likely to interact
Assay [1] addresses SARS-CoV-2 E. The procedure:
(§1)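 Split mouse DHFR complementation in pooled diploid yeast: human ORFeome clones carry one fragment and viral ORFs the other; barcoded lineages compete in 1 µg/mL methotrexate and fitness is read by barcode sequencing in up to three cultures.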

Assay [2] addresses SARS-CoV-2 M. The procedure:
as §1

Assay [3] has as its target SARS-CoV-2 N. On the procedure: as §1
For assay [4], the target named is SARS-CoV-2 NSP1. On the procedure:
as §1

The target in assay [5] is SARS-CoV-2 NSP10. The procedure: as §1
Assay [6] concerns the target SARS-CoV-2 NSP12. The procedure:
as §1

In assay [7] the target is SARS-CoV-2 NSP13. The procedure:
as §1

In assay [8] the target is SARS-CoV-2 NSP14. The procedure: as §1
The target in assay [9] is SARS-CoV-2 NSP15. The procedure: as §1
Assay [10] concerns the target SARS-CoV-2 NSP16. The procedure: as §1
Assay [11] deals with SARS-CoV-2 NSP2. On the procedure:
as §1

In assay [12] the target is SARS-CoV-2 NSP4. The procedure: as §1
Assay [13] deals with SARS-CoV-2 NSP5. On the procedure:
as §1

Assay [14] addresses SARS-CoV-2 NSP6. On the procedure:
as §1

Assay [15] concerns the target SARS-CoV-2 NSP7. On the procedure: as §1
In assay [16] the target is SARS-CoV-2 NSP8. On the procedure:
as §1

Assay [17] deals with SARS-CoV-2 NSP9. On the procedure: as §1
For assay [18], the target named is SARS-CoV-2 ORF10. On the procedure: as §1
The target in assay [19] is SARS-CoV-2 ORF3A. The procedure:
as §1

Assay [20] deals with SARS-CoV-2 ORF3B. The procedure: as §1
For assay [21], the target named is SARS-CoV-2 ORF6. The procedure: as §1
For assay [22], the target named is SARS-CoV-2 ORF7A. The procedure: as §1
The target in assay [23] is SARS-CoV-2 ORF7B. The procedure: as §1
Assay [24] concerns the target SARS-CoV-2 ORF8. The procedure: as §1
For assay [25], the target named is SARS-CoV-2 ORF9B. The procedure: as §1
In assay [26] the target is SARS-CoV-2 ORF9Bwu (the 73-codon ORF). On the procedure:
as §1

Assay [27] deals with SARS-CoV-2 S. On the procedure: as §1

Some of the results follow. Interaction screen of human proteins with wild-type SARS-CoV-2 proteins by split-DHFR complementation in yeast, 1 µg/mL methotrexate. Value = fitness of the pair (three or more lineages) minus that of the viral protein without a human partner, on a scale set by negative (0) and fused positive (1) controls, mean of up to three cultures; higher = more likely to interact. Active = false discovery rate below 0.05 (one-sided t-test) in at least one culture. Nearly all pairs are not hits, and differences among them are mostly noise (correlation between cultures about 0.3); most hits were seen in one culture only. Human sequences are the Swiss-Prot entries looked up by gene name; the clone may be another isoform. NSP2 values were corrected by the authors for a growth advantage. Listed are human proteins with a hit and a random twelfth of the others.

B1: CALD1, Q05682 (protein)
chain: MDDFERRRELRRQKREEMRLEAERIAYQRNDDDEEEAARERRRRARQERLRQKQEEESLGQVTDQVEVNAQNSVPDEEAKTTTTNTQVEGDDEAAFLERLARREERRQKRLQEALERQKEFDPTITDASLSLPSRRMQNDTAENETTEKEEKSESRQERYEIEETETVTKSYQKNDWRDAEENKKEDKEKEEEEEEKPKRGSIGENQVEVMVEEKTTESQEETVVMSLKNGQISSEEPKQEEEREQGSDEISHHEKMEEEDKERAEAERARLEAEERERIKAEQDKKIADERARIEAEEKAAAQERERREAEERERMREEEKRAAEERQRIKEEEKRAAEERQRIKEEEKRAAEERQRIKEEEKRAAEERQRARAEEEEKAKVEEQKRNKQLEEKKHAMQETKIKGEKVEQKIEGKWVNEKKAQEDKLQTAVLKKQGEEKGTKVQAKREKLQEDKPTFKKEEIKDEKIKKDKEPKEEVKSFMDRKKGFTEVKSQNGEFMTHKLKHTENTFSRPGGRASVDTKEAEGAPQVEAGKRLEELRRRRGETESEEFEKLKQKQQEAALELEELKKKREERRKVLEEEEQRRKQEEADRKLREEEEKRRLKEEIERRRAEAAEKRQKMPEDGLSDDKKPFKCFTPKGSSLKIEERAEFLNKSVQKSSGVKSTHQAAIVSKIDSRLEQYTSAIEGTKSAKPTKPAASDLPVPAEGVRNIKSMWEKGNVFSSPTAAGTPNKETAGLKVGVSSRINEWLTKTPDGNKSPAPKPSDLRPGDVSSKRNLWEKQSVDKVTSPTKV
With B1, the yeast fitness gain is inactive: -0.0189 in [1]; inactive: 0.0178 in [2]; inactive: -0.00631 in [3]; inactive: 0.0529 in assay [4]; inactive: -0.036 in assay [5]; inactive: -0.0956 in assay [6]. The yeast fitness gain in assay [7] is inactive: -0.000284; in assay [8] it was inactive: 0.0907; in [9] it was inactive: 0.0609; in assay [10] it was inactive: 0.0531; in [11], active: 0.183; in [12], inactive: -0.0174. Besides, the yeast fitness gain in assay [13] was inactive: 0.0459; in assay [14] it was inactive: -0.174; in assay [15], inactive: 0.0503; in assay [16] it was inactive: 0.0792; in assay [17], inactive: -0.124; in [18] it was inactive: 0.0433. Also, the yeast fitness gain in assay [19] was inactive: 0.183; in assay [20], inactive: -0.0394; in [21] it was inactive: 0.00875; in assay [22] it was inactive: -0.0495; in [23], inactive: -0.0488; in assay [24] it was inactive: 0.0392. Besides, the yeast fitness gain in [25] is inactive: 0.0738; in assay [26], inactive: -0.0138; in assay [27], inactive: 0.12.

B2: GCG, P01275 (protein)
chain: MKSIYFVAGLFVMLVQGSWQRSLQDTEEKSRSFSASQADPLSDPDQMNEDKRHSQGTFTSDYSKYLDSRRAQDFVQWLMNTKRNRNNIAKRHDEFERHAEGTFTSDVSSYLEGQAAKEFIAWLVKGRGRRDFPEEVAIVEELGRRHADGSFSDEMNTILDNLAARDFINWLIQTKITDRK
Regarding B2, the yeast fitness gain was inactive: -0.101 in assay [1]; inactive: -0.108 in assay [2]; inactive: -0.00824 in [5]; inactive: 0.125 in assay [6]; inactive: -0.0489 in [7]; inactive: -0.0104 in assay [9]. Besides, the yeast fitness gain in assay [11] was inactive: -0.148; in [14], inactive: 0.0387; in assay [16], inactive: -0.154; in assay [20] it was inactive: 0.0702; in assay [21] it was inactive: 0.0443; in [22] it was inactive: -0.0121. For the same molecule, the yeast fitness gain was inactive: -0.04 in assay [23]; inactive: -0.107 in assay [24]; inactive: -0.139 in assay [25]; inactive: 0.0666 in assay [26]; inactive: 0.0352 in assay [27].
